Measurements taken from the supplement of paper PMC5919970.
Where a name gives a salt, the structure may show the parent alone. Whole data set: some 2,000 compounds, median “fractional viability relative to vehicle” near 0.91, cut for the lowest 2% near 0.045. The list shows a part of the results.

Tested on: TYKNU
Test: fractional viability relative to vehicle; TYKNU is a high-grade serous ovarian cancer line; higher = less growth inhibition
Details: 72 h
Procedure, shortened: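 TYKNU control cells or lentiCRISPRv2 knockout derivatives were seeded at 500 cells per well into drug-stamped 384-well plates holding a ~2100-compound library at 2 or 10 μM, in duplicate. Cells were grown at 37 °C in 5% CO2 in RPMI 1640 with 10% FBS, and drug treatment lasted 72 h. Viability was read by Cell Titer Glo luminescence. Duplicate treatment wells were averaged and normalised to duplicate control wells from the same plate position.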

[1] = 2uM, genotype: DNM1L knockout (sgDNM1L #1)
[2] = 2uM, genotype: sgCTRLA1 (non-targeting control)
[3] = 10uM, genotype: DNM1L knockout (sgDNM1L #1)
[4] = 10uM, genotype: sgCTRLA1 (non-targeting control)

SMILES | fractional viability [1] | fractional viability [2] | fractional viability [3] | fractional viability [4]
CCCCOc1c(C(=O)c2c(F)cc(C)cc2F)c[nH]c2nncc1-2 | 0.887 | 1.05 | 0.181 | 0.573
CN(C)C(=O)COC(=O)Cc1ccc(OC(=O)c2ccc(NC(=N)N)cc2)cc1 [Camostat Mesilate] | 1.06 | 1.15 | 0.849 | 1.06
CC(C)C[C@@H]1NC(=O)[C@@H](C(C)C)NC(=O)[C@@H]2CCCN2C(=O)[C@@H](CC(=O)O)NC(=O)[C@@H](Cc2c[nH]c3ccccc23)NC1=O | 0.701 | 0.892 | 0.809 | 0.824
N=C(N)NC(=O)c1nc(Cl)c(N)nc1N [Amiloride HCl] | 0.949 | 0.976 | 0.845 | 0.969
CCOC(=O)c1ccc(NC(=O)O[C@H]2[C@H](OC(=O)Nc3ccc4c(c3)OCO4)[C@@H](OC(=O)Nc3ccc4c(c3)OCO4)[C@@H](OC)O[C@@H]2CO)cc1 | 0.821 | 1.04 | 0.616 | 0.615
CCCCOc1cc(C(=O)NCCN(CC)CC)c2ccccc2n1 [Dibucaine HCl] | 1.07 | 1.09 | 0.769 | 0.943
CCNC(=O)C#Cc1ccc2c(C(=Nc3ccc(CN(C)C)cc3)c3ccccc3)c(O)[nH]c2c1 | 0.122 | 0.0962 | 0.0494 | 0.0319
O=C1CCc2cc(OCCCCc3nnnn3C3CCCCC3)ccc2N1 [Cilostazol] | 0.981 | 1.16 | 1.05 | 1.08
CCS(=O)(=O)CCn1c([N+](=O)[O-])cnc1C [Tinidazole] | 1.8 | 1.34 | 1.19 | 1.33
N#C[C@@H]1C[C@@H]2C[C@@H]2N1C(=O)[C@@H](N)C12CC3CC(CC(O)(C3)C1)C2 [Saxagliptin] | 1.01 | 1.04 | 0.919 | 0.96
CCC1=C(C)CN(C(=O)NCCc2ccc(S(=O)(=O)NC(=O)N[C@H]3CC[C@H](C)CC3)cc2)C1=O [Glimepiride] | 1.02 | 1.21 | 0.871 | 1.15
COc1cc(Nc2nc3ccccc3nc2NS(=O)(=O)c2ccc(NC(=O)c3ccc(C)c(OC)c3)cc2)cc(OC)c1 | 1.03 | 0.985 | 1.2 | 0.943
Nc1ncnc2c1c(-c1cnc3[nH]ccc3c1)nn2C1CCCC1 | 0.378 | 0.46 | 0.129 | 0.146
Cc1cc(C(O)=C2C(=O)C(=O)N(CCCN3CCOCC3)C2c2ccncc2)ccc1OCc1ccccc1 (centres undefined) | 0.77 | 0.984 | 0.802 | 0.726
CC(C)NCC(O)COc1cccc2ccccc12 (centres undefined) [Propranolol HCl] | 0.866 | 1.12 | 0.82 | 1.1
Cc1nc(NC(=O)N2CCC[C@H]2C(N)=O)sc1-c1ccnc(C(C)(C)C(F)(F)F)c1 | 0.664 | 0.903 | 0.43 | 0.708
CCC1C/C(=C\c2cccnc2)C(=O)/C(=C/c2cccnc2)C1 (centres undefined) | 0.104 | 0.0876 | 0.0563 | 0.0253
CN(C)Cc1ccc(-c2nc3cccc4c3n2CCNC4=O)cc1 | 0.981 | 1.08 | 0.751 | 0.885
O=C(/C=C\n1cnc(-c2cc(C(F)(F)F)cc(C(F)(F)F)c2)n1)NNc1cnccn1 | 0.132 | 0.169 | 0.106 | 0.152

SMILES | fractional viability [1] | fractional viability [2] | fractional viability [3] | fractional viability [4]
Cc1[nH]c(/C=C2\C(=O)Nc3ccc(S(=O)(=O)N(C)c4cccc(Cl)c4)cc32)c(C)c1C(=O)N1CCN(C)CC1 | 1.02 | 0.999 | 0.152 | 0.189
CC(C)C[C@H](NC(=O)[C@H]1O[C@@H]1C(=O)O)C(=O)NCCCCN=C(N)N | 0.77 | 0.939 | 0.841 | 0.801
COC(=O)[C@@H]1[C@H]2C[C@H]3c4[nH]c5ccccc5c4CCN3C[C@@H]2CC[C@@H]1O [Yohimbine HCl] | 0.908 | 1.03 | 0.827 | 1.19
Oc1c2ccccc2c2c3c(cccc13)N=N2 | 1.29 | 1.21 | 0.842 | 1.17
CCCCNC(=O)NS(=O)(=O)c1ccc(C)cc1 [Tolbutamide] | 1.06 | 1.06 | 0.99 | 1.03
C[C@@H]1O[C@@H](O[C@H]2[C@H](Oc3cc(O)c(C(=O)CCc4ccc(O)cc4)c(O)c3)O[C@H](CO)[C@@H](O)[C@@H]2O)[C@H](O)[C@H](O)[C@H]1O [Naringin Dihydrochalcone] | 1.08 | 1.1 | 1.14 | 0.959
CCCS(=O)(=O)Nc1ccc(F)c(C(=O)c2c[nH]c3ncc(-c4ccc(Cl)cc4)cc23)c1F [Vemurafenib (PLX4032, RG7204)] | 1.05 | 1.26 | 0.823 | 0.974
Cc1cccc(-c2[nH]c(CNc3ccccc3F)nc2-c2ccc3ncnn3c2)n1 | 0.988 | 1.03 | 1.1 | 0.875
O=C(Nc1c(Cl)cncc1Cl)c1ccc(OC(F)F)c(OCC2CC2)c1 [Roflumilast] | 0.966 | 0.959 | 0.921 | 1
CCOC(=O)OC(C)OC1=C(C(=O)Nc2ccccn2)N(C)S(=O)(=O)c2ccccc21 (centres undefined) [Ampiroxicam] | 1.16 | 1.04 | 0.851 | 1.05
O=S(=O)(O)CCS [Mesna] | 1.01 | 1.15 | 0.785 | 1.34
Cn1nccc1Nc1nccc(-c2ccn([C@H](CO)c3ccc(Cl)c(F)c3)c(=O)c2)n1 | 0.526 | 0.689 | 0.217 | 0.214
CC(=O)OCC(=O)[C@@]12N=C(C)O[C@@H]1C[C@H]1[C@@H]3CCC4=CC(=O)C=C[C@]4(C)[C@H]3[C@@H](O)C[C@@]12C [Deflazacort] | 1.21 | 1.17 | 0.958 | 1.04
OCc1cc(C(O)CNCCCCCCOCCCCc2ccccc2)ccc1O (centres undefined) [Salmeterol Xinafoate] | 0.547 | 0.817 | 0.515 | 0.583
C[C@@H](CN1CC(=O)NC(=O)C1)N1CC(=O)NC(=O)C1 [Dexrazoxane HCl (ICRF-187, ADR-529)] | 1.04 | 1 | 0.886 | 1.09
CNCCC(Oc1ccc(C(F)(F)F)cc1)c1ccccc1 (centres undefined) [Fluoxetine HCl] | 1.17 | 1.07 | 0.927 | 0.834
Cc1nc2n(c(=O)c1CCN1CCC(c3noc4cc(F)ccc34)CC1)CCCC2 [Risperidone] | 0.833 | 0.99 | 0.943 | 0.98
CCC(=O)O[C@]1(C(=O)CCl)[C@@H](C)C[C@H]2[C@@H]3C[C@H](F)C4=CC(=O)C=C[C@]4(C)[C@@]3(F)[C@@H](O)C[C@@]21C [Halobetasol Propionate] | 1.12 | 1.08 | 0.548 | 0.975
CN(C)Cc1cccc(N/C(=C2\C(=O)Nc3cc(C(N)=O)ccc32)c2ccccc2)c1 | 1.01 | 0.992 | 1.05 | 0.912

SMILES | fractional viability [1] | fractional viability [2] | fractional viability [3] | fractional viability [4]
CCN1CC(CCN2CCOCC2)C(c2ccccc2)(c2ccccc2)C1=O (centres undefined) [Doxapram HCl] | 1.03 | 1.11 | 0.786 | 1.02
CCC(CC)CC1(C(=O)Nc2ccccc2SC(=O)C(C)C)CCCCC1 | 0.878 | 1.11 | 0.616 | 0.945
c1ccc2[nH]c(-c3cscn3)nc2c1 [Thiabendazole] | 0.943 | 0.979 | 0.907 | 0.866
Cn1cc(-c2ccc3nnc(C(F)(F)c4ccc5ncccc5c4)n3n2)cn1 | 1.13 | 0.994 | 1.03 | 0.954
CNC(=O)Nc1ccc(-c2nc(N3CC4CCC(C3)O4)c3cnn(C4CCC5(CC4)OCCO5)c3n2)cc1 | 0.199 | 0.212 | 0.188 | 0.166
CN1CC2c3ccccc3Oc3ccc(Cl)cc3C2C1 (centres undefined) [Asenapine] | 1 | 1.16 | 0.833 | 1.01
CCCCNc1ncc2c(-c3ccc(CN4CCN(C)CC4)cc3)cn([C@H]3CC[C@H](O)CC3)c2n1 | 0.322 | 0.41 | 0.0773 | 0.0599
COC1=C2C[C@@H](C)C[C@H](OC)[C@H](O)[C@@H](C)/C=C(\C)[C@H](OC(N)=O)[C@@H](OC)/C=C\C=C(/C)C(=O)NC(=CC1=O)C2=O [Geldanamycin] | 0.295 | 0.17 | 0.0611 | 0.0545
COc1cc(Nc2ncc(F)c(Nc3ccc4c(n3)N(COP(=O)(O)O)C(=O)C(C)(C)O4)n2)cc(OC)c1OC [Fostamatinib (R788)] | 1.03 | 1.06 | 0.301 | 0.365
COc1ccc(-c2cc(=O)c3c(O)cc(O[C@@H]4O[C@H](CO[C@@H]5O[C@@H](C)[C@H](O)[C@@H](O)[C@H]5O)[C@@H](O)[C@H](O)[C@H]4O)cc3o2)cc1O [Diosmin] | 0.94 | 1.11 | 1.16 | 1.14
CC1(C)S[C@@H]2[C@H](NC(=O)[C@H](NC(=O)N3CCN(S(C)(=O)=O)C3=O)c3ccccc3)C(=O)N2[C@H]1C(=O)O [Mezlocillin Sodium] | 0.766 | 0.974 | 0.681 | 0.965
Cn1c(=O)cc(N2CCC[C@@H](N)C2)n(Cc2ccccc2C#N)c1=O [Alogliptin] | 0.928 | 0.995 | 0.894 | 1.03
CCCCCCCN(CC)CCCC(O)c1ccc(NS(C)(=O)=O)cc1 (centres undefined) [Ibutilide Fumarate] | 0.919 | 1 | 0.783 | 0.871
Cc1nnc(C(C)C)n1C1C[C@H]2CC[C@@H](C1)N2CC[C@H](NC(=O)C1CCC(F)(F)CC1)c1ccccc1 (stereo in doubt) [Maraviroc] | 0.973 | 1.15 | 0.873 | 1.03
COc1cnc(NS(=O)(=O)c2ccc(N)cc2)nc1 [Sulfameter] | 0.993 | 1.04 | 0.919 | 1.02
COc1cc(CCC(C)=O)ccc1O [Vanillylacetone] | 0.907 | 1.3 | 0.924 | 1.12
O=NN(CCCl)C(=O)NC1CCCCC1 [Lomustine] | 0.92 | 1.05 | 0.391 | 0.418
CC(C)c1cc(C(=O)N2Cc3ccc(CN4CCN(C)CC4)cc3C2)c(O)cc1O | 0.254 | 0.211 | 0.265 | 0.235
